Source: the supplement of paper PMC12355420
Structures can show the parent of a compound that is named as a salt. The list shows a part of the results. No stated cut-off is given here; in the data, active = 0.5 or less and inactive = the rest. Single values are uncertain, as repeats are few or missing.

Assays:
Details in all cases: 50 µM; 24 h
[1] = tested on: HeLa VPS33A reporter cells; test: relative cell viability (CellMask signal) vs DMSO (fraction of DMSO); higher = less cytotoxic;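 further: primary screen of an FDA-approved drug library in HeLa reporter cells in 96-well format, CellMask signal normalized to DMSO-treated wells set as 1, under 0.5 deemed highly cytotoxic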
[2] = tested on: HeLa VPS33A R498W KI + HA-SDC1-FLAG; test: relative GAG core protein HA-SDC1 amount per cell number vs DMSO (fraction of DMSO); higher = more SDC1 (GAG core protein);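 further: HA-SDC1 level read out by In-Cell Western staining with an anti-HA antibody against the N-terminal tag, screening FDA-approved library drugs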
[3] = tested on: HeLa VPS33A KO + NLuc-VPS33A R498W; test: relative mutant VPS33A R498W amount (NanoLuc luminescence) vs DMSO (fraction of DMSO); HeLa model of a glycosaminoglycan (GAG) storage disease; KI is knock-in and KO knock-out; SDC1 is syndecan 1; higher = higher mutant VPS33A level;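 further: screen of an FDA-approved drug library, NanoLuc luminescence read after lysing the treated cells, taken as a measure of mutant VPS33A protein stability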

| SMILES | relative cell viability [1] | relative GAG core protein HA-SDC1 amount per cell number [2] | relative mutant VPS33A R498W amount [3] |
| --- | --- | --- | --- |
| Cc1ccc(F)c(NC(=O)Nc2ccc(-c3cccc4[nH]nc(N)c34)cc2)c1 [Linifanib (ABT-869)] | 1.14 | inactive: 0.973 | 5.82 |
| OC[C@H]1O[C@@H](OCCc2ccc(O)cc2)[C@H](O)[C@@H](O)[C@@H]1O [Salidroside] | 1.06 | inactive: 0.98 | 1.27 |
| c1ccc(C2CN3CCSC3=N2)cc1 (single isomer, unassigned; (-)) [(-)-Tetramisole] | 0.865 | inactive: 1.17 | 1.17 |
| CN(C)CCOC(C)(c1ccccc1)c1ccccn1 (stereo not given) [Doxylamine Succinate] | 0.881 | inactive: 0.927 | 1.15 |
| CCN(CC)CCNC(=O)c1cc(Cl)c(N)cc1OC [Metoclopramide] | 1.03 | inactive: 1.66 | 1.32 |
| NC[C@H]1CC[C@H](C(=O)O)CC1 [Tranexamic Acid] | 1.08 | inactive: 0.95 | 1.03 |
| COc1cc2c(cc1OC)CC(=O)N(CCCN(C)C[C@H]1Cc3cc(OC)c(OC)cc31)CC2 [Ivabradine HCl] | 1.2 | inactive: 1.09 | 1.24 |
| C=C1CC[C@H](O)C/C1=C/C=C1\CCC[C@]2(C)[C@@H]([C@H](C)CCCC(C)C)CC[C@@H]12 [Vitamin D3] | 0.933 | inactive: 0.62 | 0.96 |
| O.O.O.O.O=C([O-])CC(O)(CC(=O)[O-])C(=O)[O-].[Li+].[Li+].[Li+] [Lithium Citrate] | 1.07 | inactive: 1.59 | 0.687 |
| Nc1nc(F)nc2c1ncn2[C@@H]1O[C@H](COP(=O)(O)O)[C@@H](O)[C@@H]1O [Fludarabine Phosphate (Fludara)] | 1.43 | inactive: 0.883 | 0.589 |
| CN1CC[C@@H](NC(=O)Nc2ccc(C#N)cc2)C[C@@H]1c1nc2ccccc2[nH]1 | 1.05 | inactive: 0.576 | 0.678 |
| CCOC(=O)C1=C[C@@H](OC(CC)CC)[C@H](NC(C)=O)[C@@H](N)C1 [Oseltamivir] | 0.995 | inactive: 1.31 | 1.23 |
| COc1cc(/C=C/C(=O)O)ccc1O [Fumalic acid] | 1.04 | inactive: 0.86 | 1.05 |
| CNCc1cc(-c2ccccc2F)n(S(=O)(=O)c2cccnc2)c1 | 1.13 | inactive: 1.04 | 0.858 |
| O=C(NCCN1CCOCC1)c1ccc(Cl)cc1 | 1.07 | inactive: 1.29 | 1.11 |
| NS(=O)(=O)Cc1noc2ccccc12 [Zonisamide] | 0.95 | inactive: 1 | 1.25 |
| C[C@]12C=CC(=O)C=C1CC[C@@H]1[C@@H]2C(=O)C[C@@]2(C)[C@H]1CC[C@]2(O)C(=O)CO [Prednisone] | 1.05 | inactive: 0.789 | 1.26 |
| C[C@H]1[C@H](NC(=O)/C(=N\OC(C)(C)C(=O)O)c2csc(N)n2)C(=O)N1S(=O)(=O)O [Aztreonam] | 1 | inactive: 0.982 | 1.24 |
| CCCCCOc1ccc(-c2cc(-c3ccc(C(=O)N[C@H]4C[C@@H](O)[C@@H](O)NC(=O)[C@@H]5[C@@H](O)[C@@H](C)CN5C(=O)[C@H]([C@H](O)CC(N)=O)NC(=O)[C@H]([C@H](O)[C@@H](O)c5ccc(O)c(OS(=O)(=O)O)c5)NC(=O)[C@@H]5C[C@@H](O)CN5C(=O)[C@H]([C@@H](C)O)NC4=O)cc3)no2)cc1 [Micafungin sodium] | 1.08 | inactive: 1.68 | 1.3 |
| COc1ccccc1OCC(O)CN1CCN(CC(=O)Nc2c(C)cccc2C)CC1 (stereo not given) [Ranolazine 2HCl] | 1 | inactive: 1.36 | 1.21 |
| N#C[C@@H]1C[C@@H]2C[C@@H]2N1C(=O)[C@@H](N)C12CC3CC(CC(O)(C3)C1)C2 [Saxagliptin] | 1.2 | inactive: 1.12 | 0.831 |
| CCOc1cc(CC(=O)N[C@@H](CC(C)C)c2ccccc2N2CCCCC2)ccc1C(=O)O [Repaglinide] | 0.987 | active: 0.465 | 0.338 |
| Cc1cn([C@H]2C[C@H](O)[C@@H](CO)O2)c(=O)[nH]c1=O [Thymidine] | 1.1 | inactive: 0.63 | 1.17 |
| Cc1ccc(Nc2nccc(N(C)c3ccc4c(C)n(C)nc4c3)n2)cc1S(N)(=O)=O [Pazopanib Hydrochloride] | 1.46 | inactive: 1.32 | 0.52 |
| CCCCOc1cc(C(=O)NCCN(CC)CC)c2ccccc2n1 [Dibucaine] | 1.04 | inactive: 0.598 | 0.831 |
